{"source": "PubChem BioAssay AID463173", "about": "(ICCB-Longwood Screening Facility, Harvard Medical School, 2010)", "note": "In all, about 52,000 compounds went through this assay and about 4,300 (8.3%) were called active. No stated cut-off is given here; in the data, active means survival mostly below about 52% (no sharp cut-off); inactive means mostly above about 56%. The list shows a part of the results."}
{"tested_on": "DeltatarO mutant", "assay": "growth inhibition of S. aureus wild type versus tarO mutant, primary screen, teichoic acid synthesis inhibitors, RN4220, OD600 (AID 463173)", "details": "OD600, 18 h, hits give low values, screened at 18.75 µg/mL (by protocol)"}
{"smiles": "OCCN1C2=NCCCN2c2ccccc21", "survival": "inactive: 88%"}
{"smiles": "COc1ccc(NCc2cc3cc4c(cc3n(CC(=O)Nc3ccc(C)cc3C)c2=O)OCO4)cc1", "survival": "inactive: 87%"}
{"smiles": "CCOc1c(Br)cc(C2C=C(C(=O)O)Nc3ncnn32)cc1OC", "note": "(centres undefined)", "survival": "inactive: 101%"}
{"smiles": "CC(=O)N1c2ccccc2C(=O)C1N1CCN(c2ccc(Cl)cc2)CC1", "note": "(centres undefined)", "survival": "inactive: 71%"}
{"smiles": "O=C(NCc1ccccc1)c1cc(Sc2cccc(Cl)c2)nc2ccccc12", "survival": "inactive: 88%"}
{"smiles": "CCOC(=O)c1cc(OC(=O)c2ccccc2F)n(-c2ccccc2)n1", "survival": "inactive: 65%"}
{"smiles": "COc1ccccc1CNC(=O)C(=O)NCC(c1ccco1)S(=O)(=O)c1cccs1", "note": "(centres undefined)", "survival": "inactive: 103%"}
{"smiles": "O=C(NC1CCCCC1)c1cc2c(Cl)nc3ccccc3c2s1", "survival": "inactive: 80%"}
{"smiles": "CCn1cnc2sc(C)c(C)c2c1=O", "survival": "inactive: 94%"}
{"smiles": "Cc1cccc(-c2noc(CN(C(=O)COc3ccc(Br)cc3C)C(C)C)n2)c1", "survival": "active: 45%"}
{"smiles": "CCn1cc(C(=O)N2CCN(c3cc(C)ccc3C)CC2)c(=O)c2cc(S(=O)(=O)N3CCOCC3)ccc21", "survival": "inactive: 89%"}
{"smiles": "CCn1c(=O)n(CC)c2cc(N3CCCCC3)c(NC(=O)Nc3cc(C)cc(C)c3)cc21", "survival": "inactive: 100%"}
{"smiles": "COc1ccc(Cl)cc1NC(=O)Cn1c(=O)n(Cc2ccco2)c(=O)c2cccnc21", "survival": "inactive: 86%"}
{"smiles": "Cc1ccn2c(Nc3ccccc3C)c(-c3ccccn3)nc2c1", "survival": "active: 11%"}
{"smiles": "COCCCNC(=O)C1CCCN(C(=O)c2cnn(-c3ccc(F)cc3)c2-n2cccc2)C1", "note": "(centres undefined)", "survival": "inactive: 94%"}
{"smiles": "Cc1cc(C)c(CSc2nnc(C)n3c2cc2occc23)c(C)c1", "survival": "active: 40%"}
{"smiles": "CCN(Cc1ccccc1)C(=O)c1nc(-c2cccc(F)c2)n2c1CCCCC2", "survival": "inactive: 97%"}
{"smiles": "O=C(NC1CCCCC1)c1cc(Nc2cccc(C(F)(F)F)c2)nc2ccccc12", "survival": "inactive: 81%"}
{"smiles": "COc1cc(NC(=O)c2noc3c2CSc2ccccc2-3)cc(OC)c1OC", "survival": "inactive: 103%"}
{"smiles": "Cc1ccn2c(=O)cc(CSc3nnc(NC(=O)c4ccccc4Cl)s3)nc2c1", "survival": "inactive: 86%"}
{"smiles": "COc1cc(C(=O)Nc2nc3nc(-c4ccccc4)cc(=O)n3[nH]2)cc(OC)c1OC", "survival": "inactive: 71%"}
{"smiles": "Cc1ccc(SCc2nc(-c3ccc(C(=O)NCc4ccc(Cl)cc4)cc3)oc2C)cc1", "survival": "inactive: 76%"}
{"smiles": "COc1ccc(CNC(=O)c2cc3c(=O)[nH]c4ccccc4c3s2)cc1", "survival": "inactive: 86%"}
{"smiles": "Cc1cccc(N2CCN(C(=O)NCc3noc4ccccc34)CC2)c1C", "survival": "inactive: 53%"}
{"smiles": "CCOC(=O)c1ccccc1NC(=O)CCOc1ccccc1", "survival": "active: 22%"}
{"smiles": "COCCc1nn2c(=O)cc(COC(=O)c3ccc(OC)c(OC)c3)nc2s1", "survival": "inactive: 108%"}
{"smiles": "Cc1ccc(C)n1-c1c(C(=O)NCCC(C)C)sc2ncccc12", "survival": "inactive: 92%"}
{"smiles": "CCOC(=O)C1CCN(C(=O)Cn2c(=O)cc(C)c3c(C)nn(C)c32)CC1", "survival": "inactive: 69%"}
{"smiles": "Cc1oc2ncn(CC(C)C)c(=O)c2c1C(=O)N1CCN(c2cccc(C(F)(F)F)c2)CC1", "survival": "inactive: 85%"}
{"smiles": "CCc1nn(-c2ccccc2)c2nc(-c3cccc(OC)c3)c3cc(OC)c(OC)cc3c12", "survival": "inactive: 75%"}
{"smiles": "Cc1cccc(-n2ncc3c(Nc4ccc(Oc5ccc(Cl)cc5)cc4)ncnc32)c1", "survival": "inactive: 86%"}
{"smiles": "O=C1C2C3C=CC(C3)C2C(=O)N1C1CC2CCC1C2", "note": "(centres undefined)", "survival": "inactive: 73%"}
{"smiles": "COc1ccc(C(=O)NCCn2cc(SCC(=O)Nc3cccc(C)c3)c3ccccc32)cc1", "survival": "inactive: 60%"}
{"smiles": "CCOCCCNC(=O)NC(C)c1c(-n2cccc2)sc2c1CCN(CC)C2", "note": "(centres undefined)", "survival": "inactive: 119%"}
{"smiles": "CCc1nnc(NC(=O)CCC(=O)N2CC3(C)CC2CC(C)(C)C3)s1", "note": "(centres undefined)", "survival": "inactive: 106%"}
{"smiles": "COc1ccc(OC)c(S(=O)(=O)N2CCC(c3ccncc3)CC2)c1", "survival": "inactive: 122%"}
{"smiles": "CCc1ccc(-n2c(SCc3ccccc3F)nc3[nH]ncc3c2=O)cc1", "survival": "inactive: 86%"}
{"smiles": "O=C(CCc1nc(CN2CCN(S(=O)(=O)c3ccc(F)cc3)CC2)no1)N1CCCCC1", "survival": "inactive: 94%"}
{"smiles": "CCc1ccc(C(=O)c2cn(CC(=O)NCCc3ccc(OC)c(OC)c3)c3nc(C)ccc3c2=O)cc1", "survival": "inactive: 81%"}
{"smiles": "COc1cccc(NC(=O)CSC2=Nc3ccccc3N=C(c3ccc(F)cc3)C2)c1", "survival": "inactive: 92%"}
{"smiles": "O=C(c1ccc2c(c1)N(Cc1ccccc1F)C(=O)c1ccccc1S2(=O)=O)N1CCCCC1", "survival": "inactive: 87%"}
{"smiles": "Cc1ccc(CNC(=O)CCCCn2c(=O)c3ccccc3n(Cc3c(C)cc(C)cc3C)c2=O)cc1", "survival": "inactive: 68%"}
{"smiles": "COc1cccc(NC(=O)CSC2=Nc3ccccc3C3=NC(CC(=O)NCCc4ccccc4)C(=O)N23)c1", "note": "(centres undefined)", "survival": "inactive: 107%"}
{"smiles": "COc1ccccc1N1CCN(C(=O)Cn2ncc3c([nH]c4ccccc43)c2=O)CC1", "survival": "inactive: 101%"}
{"smiles": "NC(=O)Nn1c(CCC(=O)O)ccc1-c1ccc(Cl)cc1", "survival": "inactive: 99%"}
{"smiles": "Cc1ccc(C2C=C(c3ccc(Cl)cc3)Nc3nc(NS(=O)(=O)c4ccccc4)nn32)cc1", "note": "(centres undefined)", "survival": "inactive: 62%"}
{"smiles": "CCN1CCN(C(=O)c2cnn(-c3ccc(F)cc3)c2-n2cccc2)CC1", "survival": "inactive: 135%"}
{"smiles": "O=C(CCC1N=C2c3ccccc3N=C(SCC(=O)Nc3ccccc3F)N2C1=O)NCc1ccccc1", "note": "(centres undefined)", "survival": "inactive: 81%"}
{"smiles": "O=c1nc2sc3ccccc3n2c(=O)n1-c1ccc(Cl)c(Cl)c1", "survival": "active: 22%"}
{"smiles": "O=C1c2[nH]nc(-c3ccccc3O)c2C(c2ccc(Cl)cc2)N1Cc1ccco1", "note": "(centres undefined)", "survival": "active: -1%"}
{"smiles": "Cc1ccc2nc(N3CCN(Cc4nnnn4Cc4ccccc4)CC3)c(C#N)cc2c1", "survival": "inactive: 54%"}
{"smiles": "COc1ccc2nc(Cl)c(CN(Cc3ccc(F)cc3)C(=O)c3ccco3)cc2c1", "survival": "inactive: 81%"}
{"smiles": "Cc1ccc(NC(=O)CC(C)S(=O)(=O)c2ccc3c(c2)NC(=O)CO3)c(C)c1", "note": "(centres undefined)", "survival": "inactive: 78%"}
{"smiles": "COc1cc(-c2ccno2)ccc1S(=O)(=O)N1CCN(c2cc(C)ccc2C)CC1", "survival": "inactive: 79%"}
{"smiles": "COCC(=O)Oc1c(Sc2ccc(C)cc2)c(C)nn1C(C)(C)C", "survival": "inactive: 78%"}
{"smiles": "COc1cccc(N2CC(NC(=O)C(c3ccccc3)c3ccccc3)CC2=O)c1", "note": "(centres undefined)", "survival": "inactive: 57%"}
{"smiles": "Cc1cc(C)cc(Oc2nc3c(C)cccn3c(=O)c2/C=C(\\C#N)c2nc3ccccc3[nH]2)c1", "survival": "inactive: 72%"}
{"smiles": "CC(C)c1ccc(S(=O)(=O)c2nnn3c2nc(NCCc2ccccc2)c2sccc23)cc1", "survival": "inactive: 47%"}
{"smiles": "CC(CCc1ccccc1)NC(=O)Cn1ncc2c3ccccc3n(Cc3ccc(F)cc3)c2c1=O", "note": "(centres undefined)", "survival": "inactive: 90%"}
{"smiles": "CCCn1c(=O)c2sccc2n2c(CCCC(=O)NCCc3ccc(Cl)cc3)nnc12", "survival": "inactive: 93%"}
{"smiles": "Cc1ccc(CNC(=O)c2cc3sccc3n2Cc2ccc(Cl)cc2)cc1", "survival": "inactive: 86%"}
{"smiles": "CC(C)NC(=O)C1CCN(C(=O)NCc2ccccc2)CC1", "survival": "inactive: 93%"}
{"smiles": "O=C(NCc1ccc(F)cc1)c1ccc(CSCc2cccc(Cl)c2)o1", "survival": "inactive: 65%"}
{"smiles": "COCCNC(=O)Cc1ccc(NC(=O)N2CCCCc3ccccc32)cc1", "survival": "inactive: 112%"}
{"smiles": "Cn1cc(CN(C(=O)Nc2ccc(Cl)c(Cl)c2)C2CCCCC2)c2ccccc21", "survival": "inactive: 51%"}
{"smiles": "COCCNC(=O)c1cnn(-c2ccc(C)cc2C)c1C1CCN(C(=O)OC(C)(C)C)CC1", "survival": "inactive: 83%"}
{"smiles": "COc1ccc(-n2c(/C=C/c3ccccc3F)nc3cc(OC)c(OC)cc3c2=O)cc1Cl", "survival": "inactive: 94%"}
{"smiles": "Cc1ccccc1Cn1c(C(=O)O)c(CNCc2cccc(F)c2)c2ccccc21", "survival": "active: 52%"}
{"smiles": "O=C1c2ccccc2C(=O)C1(c1ccccc1)N1CCN(c2cccc(Cl)c2)CC1", "survival": "inactive: 114%"}
{"smiles": "Cc1ccc(N2CC(NC(=O)/C=C\\c3ccc4c(c3)OCO4)CC2=O)cc1C", "note": "(centres undefined)", "survival": "inactive: 124%"}
{"smiles": "Cc1ccc(-c2cc(C(F)(F)F)n3nc(C(=O)Nc4ccc(Cl)cc4Cl)cc3n2)cc1", "survival": "inactive: 81%"}
{"smiles": "CCN(CC)C(=O)C1CCN(S(=O)(=O)c2ccc3c(c2)CCCN3C(C)=O)CC1", "survival": "inactive: 124%"}
{"smiles": "Cc1ccc(NC(=O)CSc2ncc3c(n2)-c2ccccc2N(Cc2cccc(F)c2)S3(=O)=O)cc1F", "survival": "inactive: 81%"}
{"smiles": "Cc1nc2nncn2c(N2CCN(c3ccccc3)CC2)c1C", "survival": "inactive: 83%"}
{"smiles": "COc1ccccc1/C=C/c1nc(C#N)c(N2CCCCC2)o1", "survival": "inactive: 75%"}
{"smiles": "Cc1ccc2nc(-c3ccsc3)c(Nc3ccccc3C)n2c1", "survival": "inactive: 55%"}
{"smiles": "COc1ccc(-n2nc3ccc(NC(=O)c4ccc(-c5cc(Cl)ccc5Cl)o4)cc3n2)cc1", "survival": "active: 40%"}
{"smiles": "COc1ccc(-n2ccnc(NCc3ccc(Cl)cc3)c2=O)cc1", "survival": "active: 8%"}
{"smiles": "COc1ccc(NC(=O)CCc2nnc3n(C)c(=O)c4sccc4n23)cc1", "survival": "inactive: 196%"}
{"smiles": "C=CCc1ccccc1OCCSc1nc(-c2ccc(C(C)(C)C)cc2)nc2cc(=O)[nH]n12", "survival": "active: 32%"}
{"smiles": "CC1CN(C(=O)Nc2ccc(C(=O)NCCc3ccccc3)cc2)c2ccccc2S1", "note": "(centres undefined)", "survival": "inactive: 99%"}
{"smiles": "CCOc1cc(-c2ccc(OC(=O)c3ccccc3F)cc2)cc(=O)c2c(C)oc(C)c12", "survival": "inactive: 79%"}
{"smiles": "Cc1ccc(C(C(=O)NCc2ccccc2)N(C(=O)C2COc3ccccc3O2)c2cccc(O)c2)o1", "note": "(centres undefined)", "survival": "active: 45%"}
{"smiles": "O=C(CSc1nccn1Cc1ccccc1)NCc1ccc(F)cc1", "survival": "inactive: 75%"}
{"smiles": "CCN(Cc1ccccc1)C(=O)c1c(C)oc2ncn(C)c(=O)c12", "survival": "inactive: 84%"}
{"smiles": "COc1cc2ccccc2cc1C(=O)Nc1ccc2oc(-c3ccc(F)cc3)nc2c1", "survival": "active: 43%"}
{"smiles": "CCc1ccccc1NC(=O)c1nnn(-c2ccc(F)cc2)c1C", "survival": "inactive: 74%"}
{"smiles": "CC1CCN(S(=O)(=O)c2ccc3c(c2)oc(=O)n3CC(=O)NCc2ccc(F)cc2)CC1", "survival": "inactive: 111%"}
{"smiles": "CCOc1ccc(NC(=O)Cn2c(=O)n(Cc3ccco3)c(=O)c3oc4ccccc4c32)cc1", "survival": "inactive: 76%"}
